Measurements taken from the supplement of paper PMC8728848.
The other results are listed elsewhere or left out.

Columns and labels:
Assay in all cases: glycan array binding signal (z-score within array); higher = stronger binding
Settings in all cases: glycan notation: IUPAC condensed, linker removed
[1] = biological target: Fuc(a1-2)[Gal(a1-3)]Gal(b1-4)GlcNAc(b1-2)Man(a1-3)[Fuc(a1-2)[Gal(a1-3)]Gal(b1-4)GlcNAc(b1-2)Man(a1-6)]Man(b1-4)GlcNAc(b1-4)[Fuc(a1-6)]GlcNAc
Summary of the method: (§1)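 Negative Z-scores can be read as non-binding. The Z-score is calculated within each array and then averaged across arrays of one protein sequence at different concentrations or buffers and across linkers. Arrays, 3228 in all, were curated from the Consortium for Functional Glycomics database and kept only where the protein sequence was available.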

[2] = biological target: Fuc(a1-2)[Gal(a1-3)]Gal(b1-4)GlcNAc(b1-3)GalNAc
Summary of the method: as §1

[3] = biological target: Fuc(a1-2)[Gal(a1-3)]Gal(b1-4)GlcNAc(b1-3)[Fuc(a1-2)[Gal(a1-3)]Gal(b1-4)GlcNAc(b1-6)]GalNAc
Summary of the method: as §1

[4] = biological target: Fuc(a1-2)[Gal(a1-3)]Gal(b1-4)GlcNAc(b1-6)GalNAc
Summary of the method: as §1

[5] = biological target: Fuc(a1-2)[Gal(a1-3)]Gal(b1-4)[Fuc(a1-3)]Glc
Summary of the method: as §1

[6] = biological target: Fuc(a1-2)[Gal(a1-3)]Gal(b1-4)[Fuc(a1-3)]GlcNAc
Summary of the method: as §1

[7] = biological target: Fuc(a1-2)[Gal(a1-3)]Gal(b1-4)[Fuc(a1-3)]GlcNAc(b1-3)GalNAc
Summary of the method: as §1

[8] = biological target: Fuc(a1-2)[Gal(a1-4)]Gal(b1-4)GlcNAc
Summary of the method: as §1

[9] = biological target: Fuc(a1-2)[GalNAc(a1-3)]Gal
Summary of the method: as §1

[10] = biological target: Fuc(a1-2)[GalNAc(a1-3)]Gal(b1-3)GalNAc(a1-3)[Fuc(a1-2)]Gal(b1-4)GlcNAc
Summary of the method: as §1

[11] = biological target: Fuc(a1-2)[GalNAc(a1-3)]Gal(b1-3)GalNAc(b1-3)Gal(a1-4)Gal(b1-4)Glc
Summary of the method: as §1

[12] = biological target: Fuc(a1-2)[GalNAc(a1-3)]Gal(b1-3)GlcNAc
Summary of the method: as §1

[13] = biological target: Fuc(a1-2)[GalNAc(a1-3)]Gal(b1-3)GlcNAc(b1-2)Man(a1-3)[Fuc(a1-2)[GalNAc(a1-3)]Gal(b1-3)GlcNAc(b1-2)Man(a1-6)]Man(b1-4)GlcNAc(b1-4)GlcNAc
Summary of the method: as §1

[14] = biological target: Fuc(a1-2)[GalNAc(a1-3)]Gal(b1-3)GlcNAc(b1-2)Man(a1-3)[Fuc(a1-2)[GalNAc(a1-3)]Gal(b1-3)GlcNAc(b1-2)Man(a1-6)]Man(b1-4)GlcNAc(b1-4)[Fuc(a1-6)]GlcNAc
Summary of the method: as §1

[15] = biological target: Fuc(a1-2)[GalNAc(a1-3)]Gal(b1-3)GlcNAc(b1-3)GalNAc
Summary of the method: as §1

[16] = biological target: Fuc(a1-2)[GalNAc(a1-3)]Gal(b1-3)GlcNAc(b1-6)GalNAc
Summary of the method: as §1

[17] = biological target: Fuc(a1-2)[GalNAc(a1-3)]Gal(b1-4)Glc
Summary of the method: as §1

[18] = biological target: Fuc(a1-2)[GalNAc(a1-3)]Gal(b1-4)GlcNAc
Summary of the method: as §1

[19] = biological target: Fuc(a1-2)[GalNAc(a1-3)]Gal(b1-4)GlcNAc(b1-2)Man
Summary of the method: as §1

[20] = biological target: Fuc(a1-2)[GalNAc(a1-3)]Gal(b1-4)GlcNAc(b1-2)Man(a1-3)[Fuc(a1-2)[GalNAc(a1-3)]Gal(b1-4)GlcNAc(b1-2)Man(a1-6)]Man(b1-4)GlcNAc(b1-4)GlcNAc
Summary of the method: as §1

[21] = biological target: Fuc(a1-2)[GalNAc(a1-3)]Gal(b1-4)GlcNAc(b1-2)Man(a1-3)[Fuc(a1-2)[GalNAc(a1-3)]Gal(b1-4)GlcNAc(b1-2)Man(a1-6)]Man(b1-4)GlcNAc(b1-4)[Fuc(a1-6)]GlcNAc
Summary of the method: as §1

[22] = biological target: Fuc(a1-2)[GalNAc(a1-3)]Gal(b1-4)GlcNAc(b1-3)Gal(b1-4)GlcNAc
Summary of the method: as §1

[23] = biological target: Fuc(a1-2)[GalNAc(a1-3)]Gal(b1-4)GlcNAc(b1-3)Gal(b1-4)GlcNAc(b1-3)Gal(b1-4)GlcNAc
Summary of the method: as §1

[24] = biological target: Fuc(a1-2)[GalNAc(a1-3)]Gal(b1-4)GlcNAc(b1-3)GalNAc
Summary of the method: as §1

[25] = biological target: Fuc(a1-2)[GalNAc(a1-3)]Gal(b1-4)GlcNAc(b1-3)[Fuc(a1-2)[GalNAc(a1-3)]Gal(b1-4)GlcNAc(b1-6)]GalNAc
Summary of the method: as §1

[26] = biological target: Fuc(a1-2)[GalNAc(a1-3)]Gal(b1-4)GlcNAc(b1-6)GalNAc
Summary of the method: as §1

[27] = biological target: Fuc(a1-2)[GalNAc(a1-3)]Gal(b1-4)[Fuc(a1-3)]GlcNAc
Summary of the method: as §1

[28] = biological target: Fuc(a1-2)[GalNAc(a1-3)]Gal(b1-4)[Fuc(a1-3)]GlcNAc(b1-3)GalNAc
Summary of the method: as §1

[29] = biological target: Fuc(a1-2)[GalNAc(a1-4)]Gal(b1-4)GlcNAc
Summary of the method: as §1

[30] = biological target: Fuc(a1-2)[GalNAc(b1-3)]Gal
Summary of the method: as §1

B1: Nc3LysM (protein)
chain: QFTVPPDTTAEPNTIKTCTWWHVAGSGDSCTSIASTYGITSEQFARWDMETTDSPKNPSVATACKLTVGNSYCIENNFGQDDPPTPSISSSTLIGTATTSTTASTTTGNGISTPTPIQEGMETATTTTSSGNGITTPTPTQAGMETVGNCDRFHLVKSGDQCGTIASTYGITLANFYSWNPAVGTSCQSLWLDTYVCVRTIGFVPPKTTTTTTKKPTSTTSAGGVATPTPTQPGMETVSGCKKFHKGRGNVSTVASGDQCGTIATRYGISLANFYSWNPAVGSSCQTLWLDYYVCVGR
For B1, the “glycan array binding signal (z-score)” value [1] was -0.173, the “glycan array binding signal (z-score)” value [2] was -0.13 and the “glycan array binding signal (z-score)” value [3] was 0.055. The “glycan array binding signal (z-score)” value [4] was 0.042, the “glycan array binding signal (z-score)” value [5] was 0.064 and the “glycan array binding signal (z-score)” value [6] was -0.157. For the same binder, the “glycan array binding signal (z-score)” value [7] was -0.263, the “glycan array binding signal (z-score)” value [8] was -0.013 and the “glycan array binding signal (z-score)” value [9] was -0.143. The “glycan array binding signal (z-score)” value [10] was -0.106, the “glycan array binding signal (z-score)” value [11] was -0.291 and the “glycan array binding signal (z-score)” value [12] was -0.047. The “glycan array binding signal (z-score)” value [13] was -0.071, the “glycan array binding signal (z-score)” value [14] was -0.078 and the “glycan array binding signal (z-score)” value [15] was 0.023. The “glycan array binding signal (z-score)” value [16] was -0.237, the “glycan array binding signal (z-score)” value [17] was -0.009 and the “glycan array binding signal (z-score)” value [18] was 0.012. The “glycan array binding signal (z-score)” value [19] was -0.174, the “glycan array binding signal (z-score)” value [20] was -0.066 and the “glycan array binding signal (z-score)” value [21] was -0.117. For the same binder, the “glycan array binding signal (z-score)” value [22] was -0.11, the “glycan array binding signal (z-score)” value [23] was -0.189 and the “glycan array binding signal (z-score)” value [24] was -0.14. The “glycan array binding signal (z-score)” value [25] was -0.211, the “glycan array binding signal (z-score)” value [26] was -0.165 and the “glycan array binding signal (z-score)” value [27] was 0.237. The “glycan array binding signal (z-score)” value [28] was -0.076, the “glycan array binding signal (z-score)” value [29] was -0.204 and the “glycan array binding signal (z-score)” value [30] was -0.092.
